The campaign covered roughly 310,000 compounds. About 2,200 (0.71%) showed an effect of 50% or more. The effect is printed as a negative number. Some of the results follow.
These compounds were tested against human ether-à-go-go-related gene (hERG) potassium channel (human, UniProt Q12809) (assay: primary screen, population patch clamp on CHO cells stably expressing hERG).
human ether-à-go-go-related gene (hERG) potassium channel, sequence (Q12809 whole entry, looked up): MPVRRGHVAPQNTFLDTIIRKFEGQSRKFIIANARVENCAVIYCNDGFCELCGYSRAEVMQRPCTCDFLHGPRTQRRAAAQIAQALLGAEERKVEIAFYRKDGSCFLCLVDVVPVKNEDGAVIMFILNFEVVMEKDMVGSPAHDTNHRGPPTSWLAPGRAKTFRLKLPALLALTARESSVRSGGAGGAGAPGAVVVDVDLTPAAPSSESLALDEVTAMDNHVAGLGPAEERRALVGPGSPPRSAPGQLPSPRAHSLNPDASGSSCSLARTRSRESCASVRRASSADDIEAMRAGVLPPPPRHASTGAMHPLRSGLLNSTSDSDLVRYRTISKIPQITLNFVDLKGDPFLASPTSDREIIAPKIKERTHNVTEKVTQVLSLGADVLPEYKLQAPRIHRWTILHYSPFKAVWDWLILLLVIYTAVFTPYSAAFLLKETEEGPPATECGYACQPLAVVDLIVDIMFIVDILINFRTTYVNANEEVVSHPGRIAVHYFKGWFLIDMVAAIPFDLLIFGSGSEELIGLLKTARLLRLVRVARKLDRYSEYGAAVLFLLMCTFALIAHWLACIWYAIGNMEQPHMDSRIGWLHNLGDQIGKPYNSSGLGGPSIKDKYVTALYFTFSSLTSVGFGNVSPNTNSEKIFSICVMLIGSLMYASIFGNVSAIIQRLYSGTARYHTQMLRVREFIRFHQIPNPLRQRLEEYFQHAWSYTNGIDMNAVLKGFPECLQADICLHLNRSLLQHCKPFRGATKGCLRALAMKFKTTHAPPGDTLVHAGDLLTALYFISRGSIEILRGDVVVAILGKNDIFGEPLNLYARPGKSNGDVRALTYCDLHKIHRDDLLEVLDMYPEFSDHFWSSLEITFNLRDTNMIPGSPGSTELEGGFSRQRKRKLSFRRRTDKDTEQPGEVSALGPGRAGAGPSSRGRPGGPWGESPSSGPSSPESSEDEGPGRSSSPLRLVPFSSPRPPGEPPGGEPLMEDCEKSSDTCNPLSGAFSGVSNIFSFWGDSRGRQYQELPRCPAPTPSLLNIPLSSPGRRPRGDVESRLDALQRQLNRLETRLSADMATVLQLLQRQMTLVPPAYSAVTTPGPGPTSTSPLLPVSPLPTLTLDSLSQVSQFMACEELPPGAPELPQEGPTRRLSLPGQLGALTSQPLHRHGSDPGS

SMILES | hERG current change (%, negative = inhibition) at 1uM
O=C1c2cccc([N+](=O)[O-])c2C(=O)N1c1cccnc1 | 16.7%
CNC(=O)c1c(NC(=O)CS(=O)(=O)c2ccc(Cl)cc2)sc(C)c1C | -3.47%
COc1ccc(C(=O)NCC(=O)NCC2COc3ccccc3O2)cc1 (centres unmarked) | 6.11%
COC(=O)Cn1c2ccccc2c2nc(=O)cc(C)n21 | 8.48%
COc1ccc(N2C(=O)C3C(C2=O)C(C(=O)c2ccc(Cl)cc2)N2CCCC32)cc1 (centres unmarked) | 4.57%
CC(C)(C)NC(=O)COc1coc(CN2CCN(C(=O)c3ccco3)CC2)cc1=O | 11.7%
O=C(Nc1ccc(S(=O)(=O)Nc2nccc(C3Cc4ccccc4C(=O)O3)n2)cc1)c1ccccc1 (centres unmarked) | -3.06%
O=C(O)Cn1c(P(=O)(O)c2ccccc2)nc2ccccc21 | 17.3%
COc1ccc(-c2cc3ccccc3oc2=O)cc1 | 9.73%
CC(OC(=O)c1cc(Br)ccc1O)C(=O)NCc1ccc2c(c1)OCO2 (centres unmarked) | 4.73%
COc1ccc(C2C(C(=O)Nc3ccccc3)=C(C)Nc3nc(CCCO)nn32)cc1 (centres unmarked) | 11.2%
CC(CC(=O)Nc1cc([N+](=O)[O-])ccc1Cl)c1ccccc1 (centres unmarked) | 9.98%
CC(=O)Nc1ccc(S(=O)(=O)NC2=NCN(c3cccc([N+](=O)[O-])c3)CN2)cc1 | 8.7%
COc1ccc(CNC(=O)CSc2nc3c(oc4ccccc43)c(=O)n2CC2CCCO2)cc1 (centres unmarked) | -0.0282%
COc1cccc2c1O[C@H]1C(=O)CC[C@H]3CN(C)CCC231 (some centres unmarked) | 16.6%
COc1ccc(C(=O)Nc2c(Cl)cc(Cl)cc2C(=O)NCCN2CCOCC2)cc1 | -16.5%
CCCc1cc(=O)oc2cc(C)cc(OCC(=O)O)c12 | 14.8%
COCCCn1c(SCC(=O)N2CCOCC2)nc2ccccc2c1=O | 4.37%
O=C(CCN1C(=O)C2C3C=CC(C4CC34)C2C1=O)OCC(=O)c1ccccc1 (centres unmarked) | 7.66%
CCOc1ccc(C(C)=O)cc1COC(=O)CNC(=O)c1cccs1 | 8.53%
CCCNC(=O)C(CC)NC(=O)c1cccc([N+](=O)[O-])c1 (centres unmarked) | 16.7%
CCC(=O)NC(c1cccc([N+](=O)[O-])c1)c1c(O)ccc2ccccc12 (centres unmarked) | 18.5%

SMILES | hERG current change (%, negative = inhibition) at 1uM
CC(C)CCn1c(Oc2ccccc2Cl)nc2c1c(=O)n(C)c(=O)n2C | 3.76%
C#CCn1c(=NC(=O)c2cccs2)sc2cccc(OC)c21 | 14.7%
Cc1cc(C)n(-c2ccc(C(=O)OCC(=O)Nc3ccc(Cl)c(S(=O)(=O)N(C)C)c3)cc2)n1 | -0.413%
Cc1cccc(C(=O)O)c1[N+](=O)[O-] | 9.69%
CC1CCCC(N2CCN(C(=O)c3ccccc3F)CC2)C1 (centres unmarked) | 11.2%
COc1ccc(C2=NN(C(=O)/C=C/c3ccccc3)C(c3ccccc3)C2)c(OC(C)=O)c1 (centres unmarked) | 6.02%
CC(=O)Nc1ccc(NC(=O)CSc2nnc3ccc(-c4ccc(F)cc4)nn23)cc1 | 14.2%
O=[N+]([O-])c1cccc(-c2ncc3ccccn23)c1 | 3.34%
COc1ccc(-n2nc(C(=O)NCC(=O)NCc3ccco3)c3ccccc3c2=O)cc1Cl | -0.212%
S=C(c1cn(CCOc2ccccc2)c2ccccc12)N1CCCC1 | 7.78%
CCOc1cc(S(=O)(=O)N2CC=C(c3ccc(F)cc3)CC2)c(OCC)cc1-n1cnnn1 | 2.64%
Cc1ccc(OCC(=O)N/N=C/c2cn[nH]c2-c2ccc(Cl)c(Cl)c2)cc1 | 13.2%
COc1ccc(C(=O)Cc2cc(OC)c(OC)cc2[N+](=O)[O-])cc1 | 13.6%
CC1=NOC2(C1)N(C)c1ccccc1C2(C)C (centres unmarked) | 9.47%
CCc1cc2c(=O)n(CC(=O)NCCc3ccc(OC)c(OC)c3)cnc2s1 | 10.2%
Cc1cc(NS(=O)(=O)c2ccccc2)n(-c2ccccc2)n1 | 3.7%
Oc1cccc(/C=N/N(Cc2ccccc2)c2ccccc2)c1 | 2.4%
CCCC(c1nnnn1C1CCCCC1)N1CCN(C2CCCC2)CC1.Cl (centres unmarked) | -16.6%
FC(F)(F)c1ccccc1-c1nc(-c2ccncc2)no1 | 10.7%
CC(C)COc1ccc(Br)cc1CNC(C)(C)C.Cl | -7.74%
CCN(CC)c1nc2c(c(=O)n(C)c(=O)n2C)n1CCCc1ccccc1 | 6.99%
COc1cc(/C=C(\C#N)c2ccccn2)ccc1OCC(=O)Nc1c(Cl)cccc1Cl.Cl | 15.7%

Reference: paper PMC4336329 (PLoS ONE, 2015)
